The values below come from PubChem BioAssay AID463173 (ICCB-Longwood Screening Facility, Harvard Medical School, 2010).

The whole screen tested about 52,000 compounds, of which about 1,700 (3.3%) were called active. Cut-off read from the data, not from the text of the source: active = survival mostly below about 52% (no sharp cut-off); inactive = mostly above about 56%. Some of the results follow.

This test concerns Wild type. Put plainly: S. aureus survival, RN4220 and DeltatarO strains – OD600, teichoic acid synthesis inhibitors, primary screen (AID 463173). To be noted: S. aureus RN4220 wild type/DeltatarO growth, OD600, 18 h, active compounds read low, screened at 18.75 µg/mL (by protocol).
For the compound `CCCCNC(=O)C(CC)Sc1nnc(-c2ccc(OC)c(OC)c2)c(-c2ccc(OC)c(OC)c2)n1` (stereo not drawn), the survival is inactive: 78%.

With `CC1CCc2nc3ncn(CC(=O)Nc4cccc(C#N)c4)c(=O)c3cc2C1` (stereo not drawn), the survival was inactive: 87%.

As to `Cc1cc(N2CCC(C)CC2)nc2ccc(NC(=O)CCC(=O)N3CCN(c4cccc(C(F)(F)F)c4)CC3)cc12`, the survival is inactive: 64%.

For `CCc1ccccc1Nc1nn2c(=O)c3ccc(C(=O)Nc4cc(C)cc(C)c4)cc3nc2s1`, the survival was inactive: 68%.

Consider `O=S(=O)(Nc1ccc(-c2ccc(N3CCCC3)nn2)cc1)c1ccc(Br)cc1`, for which the survival is inactive: 87%.

Consider `COc1ccc(C(=O)NCC(c2cccs2)S(=O)(=O)c2ccc(C)cc2)cc1` (stereo not drawn), for which the survival is inactive: 143%.

`CCOC(=O)c1cnc(-c2ccccc2)nc1Nc1ccc(C)cc1`: the survival is inactive: 111%.

For the compound `Cc1cc(F)ccc1NC(=O)c1sc2nc(-c3cccs3)ccc2c1N`, the survival was inactive: 78%.

Take `Cc1nn(C)c2c1c(C(F)(F)F)cc(=O)n2CC(=O)NCc1ccccc1Cl`: the survival was inactive: 74%.

As to `Cc1ccc(NS(=O)(=O)c2ccc3c(c2)NC(=O)CCS3)c(Br)c1`, the survival is active: -3%.

For `O=C(NCc1ccccc1Cl)C1CCCN1C(=O)NCc1ccccc1` (stereo not drawn), the survival is inactive: 106%.

Regarding `Cc1ccc(CC(=O)Nc2c(C(=O)N3CCN(c4ccccc4F)CC3)oc3ccccc23)cc1`, the survival was inactive: 79%.

In the case of `CCc1cccc(CC)c1NC1=NS(=O)(=O)c2ccccc21`, the survival is inactive: 66%.

`CC(C)OCCCN1C(=O)c2[nH]nc(-c3ccccc3O)c2C1c1ccc(OCc2ccccc2)cc1` (stereo not drawn): the survival was inactive: 44%.

Consider `CCOc1ccccc1NC(=O)C(C)Sc1nc2c(c(=O)[nH]1)CCCC2` (stereo not drawn), for which the survival was inactive: 79%.

Regarding `COc1ccc(-c2cc(C(=O)Nc3c(C)nn(Cc4ccc(F)cc4)c3C)no2)cc1OC`, the survival is inactive: 79%.

Turning to `CCOCCCNC(=O)CCc1nnc2ccc(N3CCN(c4cccc(OC)c4)CC3)nn12`, the survival was inactive: 97%.

For `CCOC(=O)c1ccccc1NC(=O)CCc1c(C)nc2ncnn2c1C`, the survival was inactive: 85%.

In the case of `Cc1ccc(NCc2nnc3n2CCCCC3)cc1Cl`, the survival was inactive: 124%.

Consider `Cc1oc(-c2ccccc2)nc1CNC(=O)Nc1ccccc1`, for which the survival is inactive: 64%.

Take `CCOC(=O)C1=C(CN2CCC(C(=O)OCC)CC2)NC(=O)NC1c1ccc(Cl)cc1` (stereo not drawn): the survival was inactive: 117%.

Turning to `O=C(N/N=C/c1cccc2c1OCCO2)c1ccc(CN2CCOCC2)cc1`, the survival was inactive: 110%.

For `Cc1ccc2c(=O)cc(C(=O)Nc3nnc(C)s3)oc2c1`, the survival is inactive: 76%.

For `CN1C(C(=O)Nc2ccc(F)cc2F)=CC(c2cccs2)=NS1(=O)=O`, the survival is inactive: 106%.

In the case of `CCn1nc(-c2ccccc2)c(-c2ccccc2)c(C(=O)OCCOC)c1=O`, the survival is inactive: 93%.

In the case of `CC(C(=O)NCc1ccco1)N1CCN(C)CC1` (stereo not drawn), the survival is inactive: 106%.

Turning to `CC(C)N(C(=O)Cn1cc(S(=O)(=O)Cc2ccc(C(F)(F)F)cc2)c2ccccc21)C(C)C`, the survival was inactive: 75%.

`COc1ccc2[nH]c(=O)c(CN(C(=O)Nc3ccccc3)C3CCCC3)cc2c1`: the survival was inactive: 103%.

As to `Cc1ccc(Nc2c(-c3ccccc3O)nc3ccc(Br)cn23)cc1`, the survival was inactive: 101%.

Consider `CC1CCCC(C)N1C(=O)CSc1ccc(-c2ccc3c(c2)OCCO3)nn1` (stereo not drawn), for which the survival was inactive: 100%.

Regarding `CCOc1ccc(S(=O)(=O)N2CCN(c3ccccc3)CC2)cc1C(N)=O`, the survival was inactive: 186%.

As to `Cc1ccc(CN(C(=O)COc2ccc(C)c(C)c2)C2CCS(=O)(=O)C2)o1` (stereo not drawn), the survival was inactive: 86%.

As for `COc1ccc2c(Sc3ccc(Cl)cc3)c(C(=O)NCCCN3CCCCC3)[nH]c2c1`, the survival was active: -1%.

For `CCOc1ccc(-n2c(=O)c3c(C)c(C(=O)N(C)C)sc3n(CC(=O)Nc3c(C)cc(C)cc3C)c2=O)cc1`, the survival is inactive: 68%.

For `Cc1cccc(NC(=O)CSc2nc3c([nH]c4ccccc43)c(=O)n2C)c1`, the survival is inactive: 67%.

As for `COc1ccc(OCc2nnc(-c3ccccc3)o2)cc1`, the survival is inactive: 106%.

For `CC(=O)Nc1ccc(C(=O)CSc2ncn(-c3ccccc3)n2)cc1`, the survival is inactive: 112%.

On to `COc1ccc(S(=O)(=O)Nc2cc(-c3cn4ccccc4n3)ccc2C)cc1`, for which the survival was inactive: 117%.

With `Cn1nnc2c(N3CCN(c4ccccc4)CC3)ncnc21`, the survival was inactive: 88%.

Turning to `COCCn1c(SCC(=O)c2ccc(C)cc2C)nc2cc(C(=O)NC3CCCC3)ccc2c1=O`, the survival is inactive: 131%.

Regarding `Cc1cc2ccccc2n1CCNC(=O)c1cc(C(F)(F)F)cc(C(F)(F)F)c1`, the survival is inactive: 139%.

For `CC(C)COc1ccc(C2=NC(c3ccncc3)=Nc3ccc(F)cc3N2)cc1`, the survival was inactive: 112%.

Take `O=C(Nc1cccc(OC(=O)c2ccco2)c1)c1ccccc1`: the survival is inactive: 107%.

On to `CCOc1ccc(N(CC)S(=O)(=O)N2CCCC(C(=O)Nc3cc(Cl)ccc3C)C2)cc1` (stereo not drawn), for which the survival was inactive: 79%.

In the case of `CN1CCN(C(=O)Cn2c(-c3cccs3)cc3cc(Cl)ccc32)CC1`, the survival was inactive: 125%.

In the case of `Cc1ccc(Cl)cc1N1CCN(C(=O)C2CCN(S(=O)(=O)c3cccc4nonc34)CC2)CC1`, the survival was inactive: 115%.

On to `Cc1ccccc1OC(=O)CSc1nnc(-c2ccc3c(c2)OCO3)o1`, for which the survival is inactive: 116%.

As for `COC(=O)c1cc(NC(=O)c2nn(C)c3c2CSc2ccccc2-3)cc(C(=O)OC)c1`, the survival was inactive: 88%.

As for `CC(C)c1ccc(NC(=O)c2cc(S(=O)(=O)N3CCCCC3)cn2C)cc1`, the survival is inactive: 101%.

For `COc1ccccc1CNc1nc2ccc(Cl)cc2n2cnnc12`, the survival is inactive: 123%.

`O=C(c1noc2c1CCCCC2)N1CCN(c2cccc(C(F)(F)F)c2)CC1`: the survival is active: -3%.

As to `CCOc1ccc(-c2cc3c(=O)n(Cc4nc(-c5ccc(OC(C)C)cc5)oc4C)ccn3n2)cc1Cl`, the survival is inactive: 146%.

As for `CCCCN(CC)CCCNC(=O)Cn1ncc2c3ccccc3n(Cc3ccccc3F)c2c1=O`, the survival was inactive: 89%.

Turning to `CC(C)(C)c1ccc(C(=O)N2CCC(c3nc(-c4ccc(S(=O)(=O)N5CCCC5)cc4)no3)CC2)cc1`, the survival was inactive: 82%.

For the compound `CCN(CC)CCNC(=O)c1ccc(CSc2nc3ccncc3n2Cc2cccc(F)c2)cc1`, the survival is inactive: 87%.

Turning to `Cc1ccc(-c2n[nH]c3c2C(c2cccc(O)c2)N(c2ccc(C(=O)O)cc2)C3=O)cc1` (stereo not drawn), the survival was inactive: 98%.

`COc1ccc(CNC(=O)C2CCCN(C(=O)N3CCOc4ccccc43)C2)cc1` (stereo not drawn): the survival is inactive: 110%.

`COc1cc(C2SC[C@H]3C(=O)N(c4ccccc4)C(=O)N23)cc(OC)c1OC` (stereo partly drawn): the survival was inactive: 72%.

Regarding `O=C(Cn1nc(N2CCN(c3ccccc3)CC2)ccc1=O)Nc1ccc(F)cc1F`, the survival was inactive: 81%.

Turning to `C/C=C/C(=O)Nc1nc2ccc(OC)cc2s1`, the survival is inactive: 111%.

For the compound `Cc1ccccc1-c1nc(CN2CCC(C(=O)NCCc3ccccc3)CC2)c(C)o1`, the survival is inactive: 85%.

Regarding `O=C(CCCn1c(=O)c2ccccc2n(CC(=O)Nc2cccc(C(F)(F)F)c2)c1=O)NCc1ccc2c(c1)OCO2`, the survival was inactive: 108%.

In the case of `CCCc1cc(=O)[nH]c2nnc(SCC(=O)Nc3ccc(OC)cc3)n12`, the survival is inactive: 138%.

`CCCCCc1c(O)c2ccccc2[nH]c1=O`: the survival is inactive: 110%.

With `O=C(Nc1ccccc1C(=O)OCc1cc(=O)n2ccsc2n1)c1ccc(Cl)cc1`, the survival was inactive: 67%.

As for `O=C(COCc1cc(-c2ccc(F)cc2)on1)Nc1cccc(Cl)c1Cl`, the survival is inactive: 64%.

Regarding `O=C(NCc1cccn1Cc1ccccc1)Nc1ccc(Br)cc1F`, the survival is inactive: 87%.

With `COc1cccc(N2CCN(c3ncnc4c3c(-c3ccccc3)cn4-c3ccc(C)cc3)CC2)c1`, the survival is inactive: 125%.

As to `Cc1ccc(S(=O)(=O)c2nnn3c2nc(NC(C)c2ccccc2)c2sccc23)cc1` (stereo not drawn), the survival was inactive: 97%.

Take `CCOc1ccc(N2CC(NC(=O)c3ccc(S(=O)(=O)N4CCCC4)cc3)CC2=O)cc1` (stereo not drawn): the survival was inactive: 68%.

For `COc1ccccc1CNC(=O)CCNS(=O)(=O)c1ccc2c(c1)CCCC(=O)N2`, the survival is inactive: 75%.

With `CCN(CC)S(=O)(=O)c1ccc2c(c1)nc(CN(C)C(=O)Nc1ccc(Cl)cc1)n2C`, the survival is inactive: 81%.

With `CCOC(=O)c1c(C)[nH]c(C)c1S(=O)(=O)NCC(=O)NCc1ccc(C)cc1`, the survival is inactive: 87%.

In the case of `Cc1ccc(Cl)cc1NC(=O)Nc1nnc(N2CCCC(C)C2)s1` (stereo not drawn), the survival was inactive: 88%.

Turning to `Cc1ccc(NC(=O)CNC(=O)Cn2c(C)cc3ccccc3c2=O)cc1F`, the survival is inactive: 61%.

Turning to `O=C(Cn1c(=O)n(Cc2ccc(Cl)cc2)c(=O)c2cccnc21)Nc1ccccc1C(F)(F)F`, the survival was inactive: 78%.

On to `Cc1ccc([N+](=O)[O-])cc1S(=O)(=O)N1CCn2cccc2C1c1ccccc1F` (stereo not drawn), for which the survival was inactive: 71%.

As to `O=C(NCc1cccn1Cc1ccccc1)Nc1cccc(C(F)(F)F)c1`, the survival is inactive: 53%.

Consider `CC(C)C(=O)c1cn(CC(=O)NCC2CCCO2)c2ccccc12` (stereo not drawn), for which the survival is inactive: 108%.

Consider `CCOC(=O)c1c(C)c(-c2ccccc2)n(CC(=O)NCc2cccc(OC)c2)c1C`, for which the survival was inactive: 90%.

Turning to `Cn1c(=O)oc2cc(S(=O)(=O)N3CCC(C(=O)NCc4ccccc4)CC3)ccc21`, the survival is inactive: 89%.

As to `Cc1ccc(-n2nc3c(=O)n(CCCC(=O)NCc4ccccc4C)nc(C)c3c2C)cc1`, the survival is inactive: 128%.

With `COCCNC(=O)c1c(-c2ccccc2)c(-c2ccccc2)nn(C)c1=O`, the survival is inactive: 115%.

Take `CCOC(=O)c1c(SCC(=O)Nc2nc3ccccc3s2)nc(=O)[nH]c1C`: the survival is active: 1%.

As to `CCC(Sc1nnc(C)n2c1cc1sccc12)C(=O)Nc1ccccc1F` (stereo not drawn), the survival was inactive: 79%.

Regarding `Cc1ccc(F)cc1NC(=O)CCc1c(C)nn(-c2ccc(N3CCCC3)nn2)c1C`, the survival is inactive: 70%.

In the case of `Cc1cccc(-c2nc3scc(CCNS(=O)(=O)c4c(C)noc4C)n3n2)c1`, the survival is inactive: 80%.

In the case of `CCCCC(=O)Oc1ccc2oc(-c3ccc(OC)cc3)cc(=O)c2c1`, the survival was inactive: 69%.
